“And” between values parts separate entries of the source, which are not always exact repeats. Equal values may be shown once. Out of some 280,000 compounds screened, about 100 (0.036%) were called active. Inconclusive means that the source gave no clear call. Such entries were picked first, then a sample of the others. The call rests on the fitted dose curve; in most records, active means well fitted inhibition curve with a large enough effect in the signal ratio, with a control signal flat (not every such curve was filed as active); inconclusive means small, poorly fitted or top-dose-only effect, or effect the other way, or a change in a side signal; inactive means no such curve, though single readings can be large or run the other way; the % refers to the signal ratio. Where the call is inconclusive, the potency comes from a doubtful curve fit. “Side channel” marks fits to a control or component signal instead of the main read-out.
molecular target: Muscleblind-like protein 1 (Homo sapiens) (UniProt Q9NR56); experiment: qHTS Assay for Inhibitors of MBNL1-poly(CUG) RNA binding; conditions: TR-FRET MBNL1-His/biotin-(CUG)12 binding, 665/545 ratio; activity change, negative = inhibition: at 57.5 µM (top of the series)
Sequence of UniProt Q9NR56 (Q9NR56 whole entry, looked up): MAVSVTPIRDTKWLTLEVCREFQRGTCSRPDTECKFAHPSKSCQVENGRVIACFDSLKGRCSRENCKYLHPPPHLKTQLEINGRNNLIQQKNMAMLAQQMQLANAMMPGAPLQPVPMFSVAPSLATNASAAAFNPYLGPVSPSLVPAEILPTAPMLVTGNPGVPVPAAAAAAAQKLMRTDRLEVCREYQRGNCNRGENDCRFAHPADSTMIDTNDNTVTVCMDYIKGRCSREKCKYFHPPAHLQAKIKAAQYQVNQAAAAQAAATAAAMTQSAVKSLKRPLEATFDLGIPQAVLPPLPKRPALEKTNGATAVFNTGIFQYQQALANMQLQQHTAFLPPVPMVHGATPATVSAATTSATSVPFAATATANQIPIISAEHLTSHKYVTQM
Procedure, shortened: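 Compound titration spanned 92 nM–58 uM against the MBNL1-His/biotin-(CUG)12 complex. After 60 min at room temperature with 5 nM streptavidin-XL665 and 0.055 ng/ul terbium anti-His, ratiometric 665/545 nm emission (Ex 340 nm) normalized to controls.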
On the % scale 0 is the no-effect control and ±100 the full control effect; potency means the concentration at half of the fitted maximal effect; tags describe the fitted curve by direction and shape or compound fluorescence and quenching.

Row | Structure (SMILES) | Potency | activity change, negative = inhibition
1 | CCc1ccc(NC(=O)CCN2C(=O)c3cccnc3C2=O)cc1 | inconclusive: 35.5 µM [quencher, side channel, single point] | 
2 | O=C(Cn1c[n+](CC(=O)c2ccc([N+](=O)[O-])cc2)cn1)c1ccc([N+](=O)[O-])cc1 | inconclusive: 11.2 µM [quencher, partial curve] and inconclusive: 7.94 µM [quencher, side channel, partial curve] | 
3 | COc1cccc(-c2csc(N3CCN(C(=S)Nc4ccccc4)CC3)n2)c1 |  | inactive: 6%
4 | O=C(COC(=O)Cn1cnc2ccccc21)Nc1cc2c(cc1Cl)C(=O)c1ccccc1C2=O | inconclusive: 3.55 µM [quencher, side channel, partial curve] | 
5 | CCC(c1nnnn1Cc1ccco1)N(CCN1CCOCC1)Cc1cc2cc(C)ccc2[nH]c1=O (stereo not given) | inconclusive: 35.5 µM [quencher, side channel, single point] | 
6 | CNc1nnc(Sc2ncccc2[N+](=O)[O-])s1 | inconclusive: 11.2 µM [quencher, side channel, partial curve] | 
7 | C/C(=N\NC(=O)CSCc1cccc(Br)c1)c1ccc([N+](=O)[O-])cc1 | inconclusive: 15.8 µM [quencher, side channel, partial curve] | 
8 | Cc1ccccc1OCC(O)CN1CCN(CCN2C(=O)c3cccc4cccc(c34)C2=O)CC1 (stereo not given) | inconclusive: 15.8 µM [quencher, side channel, partial curve] | 
9 | Oc1cc2c(cc1O)C1c3ccc(O)c(O)c3OCC1(O)C2 (stereo not given) |  | inactive: -17%
10 | CCOC(=O)C1=C(C)Nc2nc(C)nn2C1c1ccc(OC)c(OC)c1 (stereo not given) | inconclusive: 631 µM [inhibitor, partial curve] | 
11 | NC(=S)N/N=C/c1ccc(-c2ccc(SC(F)F)cc2)o1 | inconclusive: 10 µM [quencher, side channel, partial curve] | 
12 | CCN1CCN(C(=O)c2ccc(Sc3ccccc3Cl)c([N+](=O)[O-])c2)CC1 | inconclusive: 12.6 µM [activator, partial curve] | 
13 | O=C(Cc1ccc(Cl)cc1)N/N=C/c1cccc(O)c1 | inconclusive: 17.8 µM [quencher, side channel, single point] | 
14 | NC1=NC2(CCCCC2)N(c2ccc(F)cc2)C(N)=N1 | inconclusive: 39.8 µM [quencher, side channel, single point] | 
15 | CCOC(=O)C1CCN(c2c(N3CCCCCC3)c(=O)c2=O)CC1 |  | inconclusive: 23.6% [phenotype inactive]
16 | CC1=CC(C)(C)N2C(=O)C3(C(C#N)=C(N)Oc4cc(O)ccc43)c3cccc1c32 (stereo not given) |  | inactive: 0.703%
17 | O=C(COc1ccc(Cl)cc1)N1CCN(c2ccc([N+](=O)[O-])c(N3CCCCC3)c2)CC1 | inconclusive: 0.141 µM [quencher, side channel, full curve, poor fit] | 
18 | Cc1ccc2cc(/C=C(\C#N)C(N)=O)c(N3CCCCC3)nc2c1 | inconclusive: 6.31 µM [quencher, side channel, full curve] | 
19 | C/C(=N\NC(=O)CSc1nc(C)cc(C)n1)c1ccc([N+](=O)[O-])cc1 | inconclusive: 1.78 µM [quencher, side channel, partial curve, poor fit] | 
20 | Cn1nnc(NC(=O)c2ccc(Br)o2)n1 |  | inactive: -3.55%

Row | Structure (SMILES) | Potency | activity change, negative = inhibition
21 | CS(=O)(=O)c1ccc2nc(NC(=O)c3cccc([N+](=O)[O-])c3)sc2c1 | inconclusive: 10 µM [quencher, side channel, partial curve] | 
22 | C/C(CC(=O)c1ccccc1)=N\NC(=O)CC#N |  | inactive: 1.33%
23 | NC(=O)c1ccccc1N/C=C/C(=O)c1ccccc1 | inconclusive: 11.2 µM [quencher, partial curve] | 
24 | CC(C)(C)n1nnnc1CN1CCN(C2CCCC2)CC1 |  | inactive: -7.69%
25 | CCN1C(=O)c2ccc(C(=O)Nc3ccc4c(c3)OCO4)cc2C1=O | inconclusive: 1.58 µM [quencher, side channel, full curve, poor fit] | 
26 | COCCn1c(C)cc(/C=C2\NC(=S)N(C)C2=O)c1C | inconclusive: 39.8 µM [quencher, side channel, partial curve, poor fit] | 
27 | COCCNC(=O)C1CC(c2cccc([N+](=O)[O-])c2)=NO1 (stereo not given) | inconclusive: 11.2 µM [quencher, side channel, partial curve] | 
28 | O=C(N/N=C/c1ccc(Br)s1)c1c[nH]c2ccccc12 | inconclusive: 28.2 µM [quencher, side channel, partial curve] | 
29 | O=C(O)c1cccnc1SCc1ccccc1Cl | inconclusive: 79.4 µM [inhibitor, single point] | 
30 | Cc1cc2c(c(=O)n1CCN(C)C)C(c1ccccc1Br)C(C#N)=C(N)O2 (stereo not given) | active: 10 µM | 
31 | Cn1ccnc1Sc1ccc(/C=N/NC(=O)c2ccccc2[N+](=O)[O-])cc1[N+](=O)[O-] | inconclusive: 12.6 µM [quencher, side channel, partial curve] | 
32 | CC(=O)N(Cc1ccc(F)cc1)C1=C(NCc2ccccc2)C(=O)c2ccccc2C1=O | inconclusive: 15.8 µM [quencher, partial curve] | 
33 | CCOCC(=O)Nc1cc([N+](=O)[O-])ccc1OC | inconclusive: 35.5 µM [quencher, side channel, single point] | 
34 | CN(CCO)c1cc(Sc2nc3ccccc3s2)c2nonc2c1[N+](=O)[O-] | inconclusive: 12.6 µM [quencher, partial curve] | 
35 | CCCCC(=O)N(CCOC)c1nnc(-c2ccc(OC)cc2)s1 |  | inactive: -0.206%
36 | CCc1c(C)nc2c(-c3ccccc3)c(C)[nH]n2c1=O |  | inactive: 1.91%
37 | O=C(CN1C(=O)C(c2ccccc2)Oc2cccnc21)NCc1ccccc1F (stereo not given) |  | inactive: -0.68%
38 | CCSC1=N/C(=C\c2ccccc2)C(=O)N1 | inconclusive: 35.5 µM [quencher, side channel, partial curve, poor fit] | 
39 | C[C@]12CC[C@@H]3c4ccc(OC(=O)c5ccccc5)cc4CC[C@H]3[C@@H]1CC[C@@H]2O | inconclusive: 79.4 µM [inhibitor, partial curve, poor fit] | 
40 | CC1CCCCN1S(=O)(=O)c1cccc2nonc12 (stereo not given) | inconclusive: 15.8 µM [quencher, side channel, partial curve] | 

Row | Structure (SMILES) | Potency | activity change, negative = inhibition
41 | O=C(O)/C=C\c1cn(-c2ccccc2)nc1-c1cc2ccccc2o1 | inconclusive: 31.6 µM [quencher, side channel, single point] | 
42 | O=S(=O)(c1cccc(-c2nnc(SCc3nc4ccccc4s3)o2)c1)N1CCOCC1 |  | inactive: 9.72%
43 | O=C1c2cccnc2-c2ncccc21 | inconclusive: 15.8 µM [quencher, side channel, partial curve] | 
44 | O=C(Cc1cccc2ccccc12)NN1C(=O)CSC1=S |  | inactive: 1.28%
45 | CC(C)c1ccc(N(C)C(=O)Cc2c(C(=O)O)n(C)c3ccccc23)cc1 |  | inactive: -3.89%
46 | CCc1cc2cccc(C)c2nc1SCC(=O)NNC(=O)c1ccco1 | inconclusive: 7.94 µM [fluorescent, side channel, partial curve, poor fit] | 
47 | COC(=O)c1[nH]c2cc(OC)c(OC)cc2c1NC(=O)CN1CCN(Cc2ccccc2)CC1 |  | inactive: -0.886%
48 | N#CC(C#N)=Cc1c(N2CCN(c3ccccc3)CC2)nc2ccccn2c1=O | inconclusive: 3.16 µM [quencher, side channel, single point] | 
49 | COc1ccc(-n2c(SCC(=O)NCC3CCCO3)nc3c([nH]c4ccccc43)c2=O)cc1OC (stereo not given) | inconclusive: 39.8 µM [quencher, side channel, single point] | 
50 | Cc1ccc(S(=O)(=O)/C(C#N)=C/c2c(N3CCC(C(N)=O)CC3)nc3ccccn3c2=O)cc1 | inconclusive: 14.1 µM [quencher, side channel, partial curve] | 
51 | O=C(O)CCC(=O)N1CCN(c2nc(-c3ccccc3Cl)c3cc(Br)ccc3n2)CC1 | inconclusive: 7.94 µM [fluorescent, side channel, partial curve] | 
52 | COc1cc(/C=N/c2oc(C)c(C)c2C#N)cc(Br)c1O | inconclusive: 31.6 µM [quencher, side channel, single point] | 
53 | O=C(O)COc1c(-c2ccco2)oc2ccccc2c1=O | inconclusive: 22.4 µM [quencher, side channel, single point] | 
54 | N#Cc1c(SCC(=O)Nc2cccc(F)c2)sc2c(O)cc(=O)[nH]c12 | inconclusive: 25.1 µM [quencher, side channel, single point] | 
55 | CCN(CC)C(=O)c1ccc(Oc2ccc([N+](=O)[O-])cc2Cl)cc1 | inconclusive: 7.08 µM [quencher, side channel, partial curve] | 
56 | Cc1ccc(S(=O)(=O)CCc2nnc(NC(=O)c3cccs3)s2)cc1 | inconclusive: 39.8 µM [quencher, side channel, single point] | 
57 | COc1ccc(NC(=O)c2cc3cc(OC)ccc3oc2=N)cc1 | inconclusive: 11.2 µM [quencher, side channel, partial curve] | 
58 | CC(=O)c1ccc(N/N=C2/CCCNC2=O)cc1 | inconclusive: 14.1 µM [quencher, side channel, partial curve] | 
59 | C/C(CC(=O)N1CCN(C=O)CC1)=N\NC(=O)c1ccc([N+](=O)[O-])cc1 |  | inactive: 4.29%
60 | COC(=O)C(CC(C)C)NC(=O)c1ccc([N+](=O)[O-])c(C)c1 (stereo not given) | inconclusive: 17.8 µM [quencher, side channel, partial curve] | 
